Reference: PubChem BioAssay (NCI)
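These data come from cells grown in 96-well plates and exposed to compound for 48 hours at five concentrations. Abbreviation: GI50, concentration required for 50% inhibition of growth.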 Certain results were filed several times, with different values. This is not the full list of results. There may be further records. The tests behind the records often covered other concentration ranges, not given here; a value can be the end of its range.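 TGI denotes the concentration required for complete inhibition of growth.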 Records carry a tag for their origin. Letters count within one entry.

Assays:
Test in all cases: growth of human tumour cells (NCI), 48 h
MDA-MB-435 = test system: MDA-MB-435
MDA-N = test system: MDA-N
MOLT-4 leukemia = test system: MOLT-4 leukemia
NCI-H226 lung = test system: NCI-H226 lung
NCI-H23 lung = test system: NCI-H23 lung
NCI-H460 lung = test system: NCI-H460 lung
NCI-H522 lung = test system: NCI-H522 lung
NCI/ADR-RES ovarian = test system: NCI/ADR-RES ovarian
OVCAR-3 ovarian = test system: OVCAR-3 ovarian
OVCAR-4 ovarian = test system: OVCAR-4 ovarian
OVCAR-5 ovarian = test system: OVCAR-5 ovarian
OVCAR-8 ovarian = test system: OVCAR-8 ovarian
PC-3 prostate = test system: PC-3 prostate
RPMI-8226 leukemia = test system: RPMI-8226 leukemia
RXF 393 renal = test system: RXF 393 renal
SF-268 CNS = test system: SF-268 CNS
SF-295 CNS = test system: SF-295 CNS
SF-539 CNS = test system: SF-539 CNS
SK-MEL-2 melanoma = test system: SK-MEL-2 melanoma
SK-MEL-28 melanoma = test system: SK-MEL-28 melanoma
SK-MEL-5 melanoma = test system: SK-MEL-5 melanoma
SK-OV-3 ovarian = test system: SK-OV-3 ovarian
SN12C renal = test system: SN12C renal
SNB-19 CNS = test system: SNB-19 CNS
SNB-75 CNS = test system: SNB-75 CNS
SW-620 colon = test system: SW-620 colon
T-47D breast = test system: T-47D breast
TK-10 renal = test system: TK-10 renal
U251 CNS = test system: U251 CNS
UACC-257 melanoma = test system: UACC-257 melanoma
UACC-62 melanoma = test system: UACC-62 melanoma
UO-31 renal = test system: UO-31 renal
XF 498 CNS = test system: XF 498 CNS

COc1cccc2c1C(=O)c1c(O)c3c(c(O)c1C2=O)C[C@@](O)(C(C)=O)C[C@@H]3OC1CC(N)C(O)C(C)O1 (some centres undefined)
TGI (MDA-MB-435): 626 nM [sample A, 1 test] and 677 nM, 334 nM [sample A, mean of 2 tests] and 936 nM [sample A, mean of 23 tests] and 305 nM [sample B, mean of 2 tests] | TGI (MDA-N): 1.39 µM, 971 nM, 737 nM, 260 nM [sample A] and 477 nM [sample B] | TGI (MOLT-4 leukemia): 304 nM, 99.2 nM, 384 nM, > 5.01 µM | TGI (NCI-H226 lung): 193 nM, 143 nM, 276 nM, 175 nM, > 5.01 µM [sample A] and 187 nM [sample B] | TGI (NCI-H23 lung): > 5.01 µM [sample A, 1 test] and 351 nM, 371 nM, 132 nM [sample A, mean of 2 tests] and 341 nM [sample A, mean of 44 tests] and 416 nM [sample A, mean of 69 tests] and 240 nM [sample B, mean of 2 tests] | TGI (NCI-H460 lung): 160, 345, 92.9, 263 nM [sample A] and 165 nM [sample B] | TGI (NCI-H522 lung): 336 nM, > 5.01 µM [sample A, 1 test] and 204 nM, 309 nM [sample A, mean of 2 tests] and 283 nM [sample A, mean of 39 tests] and 358 nM [sample A, mean of 62 tests] and 175 nM [sample B, mean of 2 tests] | TGI (NCI/ADR-RES ovarian): 29, 8.53, 24.9, 19.8 µM [sample A] and 17 µM [sample B] | TGI (OVCAR-3 ovarian): 899 nM [sample A, 1 test] and 4.57 µM, 658 nM [sample A, mean of 2 tests] and 1.57 µM [sample A, mean of 40 tests] and 1.79 µM [sample A, mean of 68 tests] and 1.66 µM [sample B, mean of 2 tests] | TGI (OVCAR-4 ovarian): > 5.01 µM [sample A, 1 test] and 2.35 µM, 1.68 µM, 686 nM [sample A, mean of 2 tests] and 1.77 µM [sample A, mean of 38 tests] and 2.16 µM [sample A, mean of 64 tests] and 457 nM [sample B, mean of 2 tests] | TGI (OVCAR-5 ovarian): 1.75 µM, 1.18 µM, 1.05 µM, 913 nM, 15.5 µM [sample A] and 13.3 µM [sample B] | TGI (OVCAR-8 ovarian): 384 nM, 622 nM, 6.1 µM [sample A, 1 test] and 548 nM [sample A, mean of 2 tests] and 2.24 µM [sample A, mean of 40 tests] and 2.07 µM [sample A, mean of 70 tests] and 977 nM [sample B, mean of 2 tests] | TGI (PC-3 prostate): 1.76 µM, 897 nM, 999 nM, 885 nM [sample A] and 447 nM [sample B] | TGI (RPMI-8226 leukemia): 149 nM, > 5.01 µM [sample A, 1 test] and 256 nM, 234 nM [sample A, mean of 2 tests] and 2.2 µM [sample A, mean of 34 tests] and 1.59 µM [sample A, mean of 53 tests] and 2.4 µM [sample B, mean of 2 tests] | TGI (RXF 393 renal): > 50 µM [sample A, 1 test] and 539 nM, 500 nM, 453 nM [sample A, mean of 2 tests] and 435 nM [sample A, mean of 35 tests] and 774 nM [sample A, mean of 59 tests] and 547 nM [sample B, mean of 2 tests] | TGI (SF-268 CNS): > 5.01 µM [sample A, 1 test] and 477 nM, 423 nM, 398 nM [sample A, mean of 2 tests] and 1.02 µM [sample A, mean of 38 tests] and 1.32 µM [sample A, mean of 70 tests] and 619 nM [sample B, mean of 2 tests] | TGI (SF-295 CNS): > 5.01 µM [sample A, 1 test] and 417 nM, 191 nM [sample A, mean of 2 tests] and 508 nM [sample A, mean of 40 tests] and 556 nM [sample A, mean of 71 tests] and 156 nM [sample B, mean of 2 tests] | TGI (SF-539 CNS): 376 nM, 381 nM, 386 nM, 194 nM, 396 nM, > 5.01 µM [sample A] and 367 nM [sample B] | TGI (SK-MEL-2 melanoma): > 5.01 µM [sample A, 1 test] and 1.17 µM, 917 nM, 176 nM [sample A, mean of 2 tests] and 670 nM [sample A, mean of 41 tests] and 811 nM [sample A, mean of 63 tests] and 344 nM [sample B, mean of 2 tests] | TGI (SK-MEL-28 melanoma): 1.26 µM, 1.22 µM, 745 nM, 1.04 µM, > 15.8 µM [sample A] and 625 nM [sample B] | TGI (SK-MEL-5 melanoma): 266 nM, > 5.01 µM [sample A, 1 test] and 199 nM [sample A, mean of 2 tests] and 290 nM [sample A, mean of 40 tests] and 478 nM [sample A, mean of 63 tests] and 159 nM [sample B, mean of 2 tests] | TGI (SK-OV-3 ovarian): 9.21 µM [sample A, 1 test] and 5.09 µM, 9.18 µM, 3.63 µM [sample A, mean of 2 tests] and 2.8 µM [sample A, mean of 36 tests] and 4.83 µM [sample A, mean of 64 tests] and 152 nM [sample B, 1 test] | TGI (SN12C renal): 12.6 µM [sample A, 1 test] and 3.15 µM, 5.41 µM, 210 nM [sample A, mean of 2 tests] and 1.3 µM [sample A, mean of 41 tests] and 1.28 µM [sample A, mean of 68 tests] and 794 nM [sample B, mean of 2 tests] | TGI (SNB-19 CNS): > 5.01 µM [sample A, 1 test] and 883 nM, 1.09 µM, 3.66 µM [sample A, mean of 2 tests] and 3.19 µM [sample A, mean of 39 tests] and 2.38 µM [sample A, mean of 66 tests] and 1.85 µM [sample B, mean of 2 tests] | TGI (SNB-75 CNS): 258 nM, > 5.01 µM [sample A, 1 test] and 848 nM, 181 nM [sample A, mean of 2 tests] and 564 nM [sample A, mean of 42 tests] and 579 nM [sample A, mean of 61 tests] and 181 nM [sample B, mean of 2 tests] | TGI (SW-620 colon): 2.02, 2.42, 1.13, 1.23, 2.99, 6.25 µM [sample A] and 674 nM [sample B] | TGI (T-47D breast): 2.46 µM, 282 nM, 2.07 µM [sample A, mean of 2 tests] and 1.99 µM [sample A, mean of 25 tests] and 1.09 µM [sample B, mean of 2 tests] | TGI (TK-10 renal): 193 nM, > 5.01 µM [sample A, 1 test] and 14.3 µM [sample A, mean of 14 tests] and 5.95 µM, 1.59 µM [sample A, mean of 2 tests] and 6.53 µM [sample A, mean of 70 tests] and 772 nM [sample B, mean of 2 tests] | TGI (U251 CNS): 1.17 µM, > 5.01 µM [sample A, 1 test] and 624 nM, 516 nM [sample A, mean of 2 tests] and 739 nM [sample A, mean of 40 tests] and 1.07 µM [sample A, mean of 65 tests] and 10.3 µM [sample B, mean of 2 tests] | TGI (UACC-257 melanoma): 958 nM, > 5.01 µM [sample A, 1 test] and 675 nM, 443 nM [sample A, mean of 2 tests] and 784 nM [sample A, mean of 36 tests] and 1.11 µM [sample A, mean of 67 tests] and 357 nM [sample B, mean of 2 tests] | TGI (UACC-62 melanoma): 229 nM, 139 nM, > 5.01 µM [sample A, 1 test] and 299 nM [sample A, mean of 2 tests] and 206 nM [sample A, mean of 42 tests] and 320 nM [sample A, mean of 65 tests] and 242 nM [sample B, mean of 2 tests] | TGI (UO-31 renal): 1.52 µM, 2.37 µM, 3.14 µM, 3.52 µM, > 5.01 µM [sample A] and 2.57 µM [sample B] | GI50 (XF 498 CNS): > 5.01 µM [1 test] and 80 nM [mean of 34 tests] | TGI (XF 498 CNS): 431 nM, 254 nM, > 5.01 µM
